Measurements as given in PubChem BioAssay (EPA / NIEHS).
For some assays here: What follows is the remainder of the data, with few or none of the hits. Records with an inconclusive call do not appear. Where a structure was tested more than once in an assay, its records may differ in their call. This is a selection; strong and weak results do not stand in their true shares. Calls of active or inactive are those of the source. Rule for the calls, unless noted: active = hit-call score of the fitted dose curve at least 0.9, where 1 is the maximum; inconclusive = response in the unintended direction; inactive = score below 0.9.

Tests used:
[1] = BSK_3C_Proliferation: Cell Proliferation Assessment in the BioMAP Diversity Plus: 3C Assay (AID 2283006; active = hit-call score of the fitted dose curve at least 0.9, where 1 is the maximum; inactive = score below 0.9;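 note: potency may reflect either rise or fall in cell number versus DMSO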); conditions: primary human endothelial cells (HUVEC)
In short: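 Proliferation of human vascular endothelial primary cells after 48 h dosing, quantified as SRB-stained protein at 560 nm relative to DMSO.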

[2] = biological target: Peroxisome proliferator-activated receptor gamma (Homo sapiens) (UniProt P37231); experiment: ATG_PPARg_TRANS: Attagene TRANS-FACTORIAL HepG2 Assay for human Peroxisome Proliferator-activated Receptor-gamma (PPARg) (AID 2283007)
In short: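 Twenty-four hours after chemical dosing of transiently transfected HepG2 cells, isolated RNA was converted to cDNA, reporter sequences amplified and 6-FAM-labelled, then HpaI-digested and analysed by capillary electrophoresis. Signal increase against DMSO was fitted.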

[3] = read-out: Monocyte Chemoattractant Protein-1 (MCP1), CCL2 (gene 6347); experiment: BSK_3C_MCP1: BioMAP Diversity Plus: 3C Assay for Monocyte Chemoattractant Protein-1 (MCP1) Biomarker Activity (AID 2283017; active = hit-call score of the fitted dose curve at least 0.9, where 1 is the maximum; inactive = score below 0.9); conditions: actives raise or lower the signal; primary human endothelial cells (HUVEC)
In short: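 Primary human umbilical vein endothelial cells (3C system) were exposed to test chemical for 24 h, after which MCP-1 was quantified by ELISA. Activity was fitted bidirectionally against DMSO as negative control and baseline.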

[4] = read-out: Human Leukocyte Antigen - DR isotype (HLADR), HLA-DRA (gene 3122); experiment: BSK_CASM3C_HLADR: BioMAP Diversity Plus: CASM3C Assay for Human Leukocyte Antigen - DR isotype (HLADR) Biomarker Activity (AID 2283043; active = hit-call score of the fitted dose curve at least 0.9, where 1 is the maximum; inactive = score below 0.9;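 note: cell-surface HLA-DR protein level quantified by ELISA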); conditions: actives raise or lower the signal; primary human coronary artery smooth muscle cells
[5] = read-out: Tissue Factor, F3 (gene 2152); experiment: BSK_LPS_TissueFactor: BioMAP Diversity Plus: LPS Assay for Tissue Factor Biomarker Activity (AID 2283084; active = hit-call score of the fitted dose curve at least 0.9, where 1 is the maximum; inactive = score below 0.9); conditions: actives raise or lower the signal; primary human HUVEC with PBMC
In short: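 Human umbilical vein endothelial cells co-cultured with peripheral blood mononuclear cells were dosed and stimulated with LPS. Cell-surface CD142 was quantified by ELISA at 24 h. Activity was fitted bidirectionally against DMSO baseline.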

[6] = biological target: human CYP1A1, CYP1A1 (gene 1543) (UniProt P04798); experiment: NVS_ADME_hCYP1A1: NovaScreen (NVS) CYP450-related Enzyme Activity (ADME) Assay for human CYP1A1 (AID 2283100)
In short: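 Cell-free fluorescence assay of recombinant human CYP1A1 activity with a specific substrate, read 1 h after dosing. Compounds were screened in duplicate at 10 uM, then hits tested in concentration-response up to 20 uM; acetonitrile served as baseline.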

[7] = biological target: bovine Estrogen Receptor (ER), ESR1 (gene 407238) (UniProt P49884); experiment: NVS_NR_bER: NovaScreen (NVS) Nuclear Receptor Binding Assay for bovine Estrogen Receptor (ER) (AID 2283345);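 note: actives lower the bound radioligand count which means they displace the ER ligand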
In short: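 Displacement of a radioligand from estrogen receptor in bovine uterine membrane preparations; scintillation signal taken at 18 hours, DMSO as baseline. Single-concentration duplicates (25 uM) preceded concentration-response follow-up of actives.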

[8] = biological target: chimpanzee Androgen Receptor (AR), AR (gene 747460) (UniProt O97775); experiment: NVS_NR_cAR: NovaScreen (NVS) Nuclear Receptor Binding Assay for chimpanzee Androgen Receptor (AR) (AID 2283346);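 note: radioligand displacement from AR measured by scintillation counting in a cell-free assay; a loss of bound radioligand signal versus DMSO counts as binding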
In short: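 Radioligand binding to chimpanzee AR expressed in Sf9/Sf21 cells, cell-free, measured 72 h after dosing by lysate-based scintillation counting. Loss of signal vs DMSO; initial duplicate screen at 25 uM, actives retested in concentration series.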

[9] = biological target: Androgen Receptor/SRC-1 Co-activator, AR (gene 367) (UniProt P10275); experiment: OT_AR_ARSRC1_0480: Odyssey Thera (OT) 8-hour HEK293T Protein-Complementation Assay for Androgen Receptor/SRC-1 Co-activator (AID 2283354);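 note: hits raise the complementation signal above DMSO so AC50 marks enhancers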
In short: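 HEK293T cells stably expressing AR and SRC-1 fused to Venus YFP fragments, imaged 8 h after dosing. Complementation fluorescence scored as nuclear/cytoplasmic ratio at 488 nm in at least 400 cells per image; gain fitted versus DMSO.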

[10] = Tanguay_ZF_120hpf_PE_legacy: (Legacy) Oregon State University Tanguay Lab 120 Hour Post-fertilization zebrafish Assay for Pericardial Edema (AID 2283640);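 note: potency for increased incidence of pericardial edema versus DMSO baseline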
Protocol: Tanguay_ZF_120hpf_legacy is a whole embryo, multiplexed endpoint assay using zebrafish larvae exposed for 120 hours post fertilization on a 96-well plate.Tanguay_ZF_120hpf_PE_legacy is one of one assay component(s) measured or calculated from the Tanguay_ZF_120hpf_legacy assay. It is designed to make measurements of zebrafish development as detected with brightfield microscopy of developing zebrafish embryos.Data from the assay component Tanguay_ZF_120hpf_PE_legacy was analyzed into 1 assay endpoints. This assay endpoint, Tanguay_ZF_120hpf_PE_legacy, was analyzed in the positive analysis fitting direction relative to DMSO as the negative control and baseline of activity. Using a type of morphology reporter, gain-of-signal activity can be used to understand changes in developmentals as they relate to the whole embryo. To generalize the intended target to other relatable targets, this assay endpoint is annotated to the zebrafish development intended target family, where the subfamily is embryonic morphogenesis.
Zebrafish husbandry: Tropical 5D wild-type adult zebrafish were housed in at an approximate density of 1000 per 100 gallon tank at the Sinnhuber Aquatic Research Laboratory, Oregon State University, Corvallis, OR. […] At 24 hpf, embryos were assessed for photomotor response using a custom photomotor response analysis tool (PRAT) and for developmental toxicity endpoints (MO24: mortality at 24 hpf, DP: developmental progression, SM: spontaneous movement, and NC: notochord distortion). At 120 hpf, locomotor activity was measured using Viewpoint Zebralab and assessed for 18 endpoints. Zebrafish acquisition and analysis program (ZAAP), a custom program designed to inventory, acquire, and manage zebrafish data, was used to collect developmental endpoints as either present or absent (i.e., binary responses were recorded). If mortality occurred for an embryo (at either 24 or 120 hpf), the non-mortality endpoints were not measured.

[11] = biological target: human Thyroid hormone Receptor beta (TRb), THRB (gene 7068) (UniProt P10828); experiment: ATG_hTRb_XSP1: Attagene TRANS-FACTORIAL Multi-Species (XSP1) HepG2 Assay for human Thyroid hormone Receptor beta (TRb) (AID 2283808)
In short: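 HepG2 cells transiently transfected with reporter units driving GAL4-UAS reporters for chimeric NR-Gal4 proteins; 24 h chemical exposure with 3 nM 6-alpha-fluorotestosterone present. Reporter mRNA quantified by RT-PCR and capillary electrophoresis, gain of signal versus DMSO.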

[12] = CCTE_Shafer_MEA_acute_burst_duration_mean: CCTE's Neural Acute Assay for Mean Burst Duration, Shafer Lab (AID 2284014; active = hit-call score of the fitted dose curve at least 0.9, where 1 is the maximum; inactive = score below 0.9;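 note: hits are decreases in mean burst duration relative to DMSO controls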)
In short: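 Rat primary cortical neurons on 48-well MEA, treated at DIV 13 or 15 with 0.03-40 uM in at least 3 wells. Value is percent change in mean burst duration, comparing 40 min recordings at 37 C before and during exposure.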

[13] = CCTE_Shafer_MEA_dev_interburst_interval_mean: CCTE's Neural Network Formation Assay for Mean Interburst Interval, Shafer Lab (AID 2284046; active = hit-call score of the fitted dose curve at least 0.9, where 1 is the maximum; inactive = score below 0.9;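 note: well-mean interburst interval of bursting electrodes as AUC over four recording days; curve fitted for decrease in interburst interval relative to DMSO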)
In short: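 Primary rat cortical neurons on PEI-coated 48-well MEA plates (laminin added with cells at plating) (16 electrodes/well), exposed from plating day 0 with renewal at DIV 5 and 9. Mean inter-burst interval averaged over bursting electrodes, AUC across days 5, 7, 9, 12; DMSO baseline.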

[14] = CCTE_Shafer_MEA_dev_spike_duration_mean: CCTE's Neural Network Formation Assay for Mean Spike Duration, Shafer Lab (AID 2284051; active = hit-call score of the fitted dose curve at least 0.9, where 1 is the maximum; inactive = score below 0.9;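 note: mean network spike duration pooled as area under curve over DIV 5 to 12 recordings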)
In short: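 Spontaneous activity was recorded on days 5, 7, 9 and 12 from rat cortical cultures grown on microelectrode arrays and dosed continuously from day 0, with media and compound renewed after the DIV 5 and 9 recordings. Network-spike duration was collapsed by area under the curve.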

[15] = CCTE_Shafer_MEA_dev_per_network_spike_spike_number_mean: CCTE's Neural Network Formation Assay for Mean Number of Spikes in a Network Spike, Shafer Lab (AID 2284053; active = hit-call score of the fitted dose curve at least 0.9, where 1 is the maximum; inactive = score below 0.9)
In short: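 Mean spike count within each network spike, taken in a 0.05 s window at its peak, was recorded on days 5, 7, 9 and 12 and integrated as trapezoidal area under the curve. Rat cortical cultures on MEA plates received continuous compound from day 0, refreshed at medium changes on DIV 5 and 9.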

[16] = CCTE_Mundy_HCI_hNP1_Casp3_7: CCTE's Caspase-Glo 3/7 Assay in human neuroprogenitor cells for Apoptosis, Mundy Lab (AID 2284240; active = hit-call score of the fitted dose curve at least 0.9, where 1 is the maximum; inactive = score below 0.9)
In short: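 Luminescent caspase-3/7 readout, 26.5 h post-dose, in human neural progenitor cells from WA09 embryonic stem cells. Cells grew 40–44 h at 37 °C, 5% CO2 before chemical addition. Activity analysed as signal increase over DMSO baseline.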

[17] = biological target: Peroxisome proliferator-activated receptor gamma (Homo sapiens) (UniProt P37231); experiment: OT_PPARg_PPARgSRC1_0480: Odyssey Thera (OT) 8-hour Protein-Complementation Assay for Peroxisome Proliferator-activated Receptor Gamma / SRC-1 Co-activator (AID 2283387)
In short: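 Protein-fragment complementation of split Venus YFP reports PPARg/SRC-1 interaction in HEK293T (transfected 48 h before treatment), exposed 8 h. Readout: N/C fluorescence ratio at 488 nm from imaging, Draq5 for segmentation, positive fit relative to DMSO.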

[18] = biological target: Peroxisome proliferator-activated receptor gamma (Homo sapiens) (UniProt P37231); experiment: OT_PPARg_PPARgSRC1_1440: Odyssey Thera (OT) 24-hour Protein-Complementation Assay for Peroxisome Proliferator-activated Receptor Gamma/ SRC-1 Co-activator (AID 2283388)
In short: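 HEK293T cells transiently transfected with PPARg and SRC-1 fused via (Gly4Ser)2 linker to split Venus YFP fragments (IFP1/IFP2) were dosed 24 h; fixed, Draq5-stained, imaged at 488/635 nm; nuclear/cytoplasmic fluorescence ratio scored versus DMSO baseline, gain-of-signal.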

[19] = read-out: Broad substrate specificity ATP-binding cassette transporter ABCG2 (Homo sapiens) (UniProt Q9UNQ0); experiment: LTEA_HepaRG_ABCG2: Life Technologies and Expression Analysis (LTEA) Assay for ABC Transporter (ABCG2) using HepaRG (AID 2283465; active = hit-call score of the fitted dose curve at least 0.9, where 1 is the maximum; inactive = score below 0.9); conditions: actives raise or lower the signal; mRNA level, 48 h
In short: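 Differentiated HepaRG cells were exposed for 48 h in serum-free induction medium to 8 half-log concentrations, top 100 uM, in 0.5% DMSO. ABCG2 mRNA was measured by qRT-PCR, normalized to ACTB, GAPDH and POLR2A, with bidirectional fitting versus DMSO.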

[20] = read-out: CYP2C9 (gene 1559); experiment: LTEA_HepaRG_CYP2C9: Life Technologies and Expression Analysis (LTEA) Assay for CYP2C9 using HepaRG (AID 2283484; active = hit-call score of the fitted dose curve at least 0.9, where 1 is the maximum; inactive = score below 0.9); conditions: actives raise or lower the signal; mRNA level, 48 h
In short: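 Differentiated human HepaRG cells in serum-free induction medium were exposed 48 h to chemicals in 8-point half-log series from 100 uM (0.5% DMSO), in duplicate. CYP2C9 mRNA was measured by qRT-PCR, normalized to ACTB/GAPDH/POLR2A, with bidirectional fitting versus DMSO.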

[21] = biological target: Cellular tumor antigen p53 (Homo sapiens) (UniProt P04637); experiment: TOX21_p53_BLA_p3_ratio: Tox21 HCT-116 p53 Agonism Beta-lactamase Assay, Ratio, Phase 3 (AID 2283596)
In short: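 HCT116 p53-bla cells (4000/well) given compound in DMSO (217-fold dilution) after 5 h, incubated 16 h at 37C. CCF4-AM substrate 2 h at room temperature; 460/530 nm emission ratio, gain fitted against DMSO.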

Measured: AC50

CC(C)(c1ccc(O)cc1)c1ccc(O)cc1
active: [1] 14.5 µM | [2] 48.9 µM | [7] 1.76 µM | [8] 19.9 µM | [10] 34.7 µM | [16] 10 µM
inactive: [2] | [3] | [4] | [5] | [6] | [9] | [11] | [12] | [13] | [14] | [15]

c1ccc(Nc2ccccc2)cc1
inactive: [2] | [17] | [18] | [19] | [20] | [21]
